These results are taken from PMC4242493.

The list shows a part of the results. The list includes weakly bound sequences.

For this assay, the target named is MaxL homodimer (UniProt P61244). As to the kind of experiment: universal protein-binding microarray (PBM). To be noted: PBS-based mixture, 10 nM His-tagged protein dimer, 2% milk, 200 ng/uL BSA, 50 ng/uL salmon testes DNA, 0.02% TX-100; detection with Alexa 488 anti-His …; high values mean tight binding; most listed sequences are background and not binding sites; double strand, one strand shown.
UniProt P61244, sequence (P61244 whole entry): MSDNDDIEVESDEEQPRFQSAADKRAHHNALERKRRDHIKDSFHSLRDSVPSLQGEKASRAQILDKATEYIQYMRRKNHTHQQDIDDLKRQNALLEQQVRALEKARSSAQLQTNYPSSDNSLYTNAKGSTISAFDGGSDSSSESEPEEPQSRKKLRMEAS
With AGGAAGAC, the binding signal (normalized occupancy) is 0.0729.

Take GCGGTTCC: the binding signal (normalized occupancy) came out at 0.0687.

With ATTAAGTC, the binding signal (normalized occupancy) stood at 0.0745.

Regarding TTAAAAAA, the binding signal (normalized occupancy) was 0.0724.

On to CTTGGTAC, for which the binding signal (normalized occupancy) amounted to 0.0803.

With AATATCCA, the binding signal (normalized occupancy) amounted to 0.0773.

Consider CCGTCCCA, for which the binding signal (normalized occupancy) came out at 0.0776.

Regarding ACAGAGGT, the binding signal (normalized occupancy) was 0.0779.

For the sequence CCTGACCC, the binding signal (normalized occupancy) is 0.072.

Take ATAAACAA: the binding signal (normalized occupancy) was 0.0758.

Turning to CTATGGTA, the binding signal (normalized occupancy) was 0.0763.

Regarding GTCGGGTA, the binding signal (normalized occupancy) is 0.0755.

Consider GATTTGGC, for which the binding signal (normalized occupancy) stood at 0.0793.

Take ATTCACTC: the binding signal (normalized occupancy) was determined as 0.0752.

As to GATACTAC, the binding signal (normalized occupancy) stood at 0.0771.

As for AGTCTTGG, the binding signal (normalized occupancy) turned out to be 0.0692.

Consider AGGGGGTG, for which the binding signal (normalized occupancy) was 0.0802.

As for ATTCGCGC, the binding signal (normalized occupancy) came out at 0.0824.

For AGAATCAT, the binding signal (normalized occupancy) was 0.0787.

Consider AGTCATGC, for which the binding signal (normalized occupancy) was 0.096.

As for CGGTCCAG, the binding signal (normalized occupancy) came out at 0.0682.

As to TACATCAA, the binding signal (normalized occupancy) worked out at 0.081.

As for AAGGATGT, the binding signal (normalized occupancy) amounted to 0.0722.

As to CTACCCAA, the binding signal (normalized occupancy) was determined as 0.0753.

For GCCTGGAC, the binding signal (normalized occupancy) was 0.0739.

As for GGTCGGAA, the binding signal (normalized occupancy) is 0.0706.

Take AAAGGGTC: the binding signal (normalized occupancy) stood at 0.0759.

For the sequence CAATGGCG, the binding signal (normalized occupancy) came out at 0.0709.

As for AAGAAACT, the binding signal (normalized occupancy) came out at 0.0734.

Take AGACAGCT: the binding signal (normalized occupancy) was found to be 0.0701.

Consider CCTGTCAA, for which the binding signal (normalized occupancy) is 0.0718.

In the case of CAGAAAAC, the binding signal (normalized occupancy) is 0.0748.

Regarding CCATTCCA, the binding signal (normalized occupancy) is 0.0807.

On to AGACGGTC, for which the binding signal (normalized occupancy) amounted to 0.0743.

Regarding ACGCTTGG, the binding signal (normalized occupancy) is 0.0747.

Take CAAATACA: the binding signal (normalized occupancy) was 0.0845.

Consider CCTCATAC, for which the binding signal (normalized occupancy) stood at 0.0793.

Consider CAGCTGCG, for which the binding signal (normalized occupancy) amounted to 0.0693.

As for ATCTTTTA, the binding signal (normalized occupancy) worked out at 0.0775.

ATGACCTA: the binding signal (normalized occupancy) was found to be 0.0878.

ACCATGTA: the binding signal (normalized occupancy) was 0.0876.

Take GGGTACCA: the binding signal (normalized occupancy) was determined as 0.0719.

For GCCGACGA, the binding signal (normalized occupancy) was 0.0731.

As to GATTTTGA, the binding signal (normalized occupancy) stood at 0.0757.

On to AATATTGT, for which the binding signal (normalized occupancy) worked out at 0.0757.

As to AGCACAGC, the binding signal (normalized occupancy) was 0.0685.

Turning to AAGACATT, the binding signal (normalized occupancy) is 0.0789.

For CCTTCTAG, the binding signal (normalized occupancy) was 0.0711.

As to CAGCCCTA, the binding signal (normalized occupancy) came out at 0.0758.

Regarding CGATTAGC, the binding signal (normalized occupancy) is 0.071.

As to ATGCGCAC, the binding signal (normalized occupancy) stood at 0.0828.

With AAGGTCAT, the binding signal (normalized occupancy) stood at 0.0756.

In the case of CGTGTAAA, the binding signal (normalized occupancy) came out at 0.0895.

Take CTGGTCCC: the binding signal (normalized occupancy) was 0.0738.

With CTAACGAC, the binding signal (normalized occupancy) amounted to 0.0717.

Regarding CTACCGGC, the binding signal (normalized occupancy) worked out at 0.0672.

On to AAGTGTTA, for which the binding signal (normalized occupancy) turned out to be 0.078.

For TCGCAGAA, the binding signal (normalized occupancy) was found to be 0.07.

For the sequence ACTAAGTA, the binding signal (normalized occupancy) was 0.0741.

As to GGCCTTGA, the binding signal (normalized occupancy) amounted to 0.0739.

For AGGCTGAA, the binding signal (normalized occupancy) was determined as 0.0687.

In the case of CCGGGTCC, the binding signal (normalized occupancy) came to 0.0723.

In the case of CGCATAGA, the binding signal (normalized occupancy) worked out at 0.0778.

In the case of GTTCAGGA, the binding signal (normalized occupancy) is 0.0725.

On to CTTTTACC, for which the binding signal (normalized occupancy) came out at 0.0701.

For the sequence AATAATCG, the binding signal (normalized occupancy) amounted to 0.0787.

For GAGAACGC, the binding signal (normalized occupancy) stood at 0.0762.

Consider GCACAACA, for which the binding signal (normalized occupancy) was found to be 0.0766.

For ATTATCAG, the binding signal (normalized occupancy) was found to be 0.0855.

With AGTAGTGC, the binding signal (normalized occupancy) was determined as 0.0739.

Take ACTAATTA: the binding signal (normalized occupancy) was determined as 0.0771.

On to AGTCCTAC, for which the binding signal (normalized occupancy) turned out to be 0.0718.

TACCGACA: the binding signal (normalized occupancy) worked out at 0.0767.

GTCCGTTA: the binding signal (normalized occupancy) came out at 0.076.

TACCTATA: the binding signal (normalized occupancy) was found to be 0.0788.

Turning to GATAAGAC, the binding signal (normalized occupancy) came out at 0.0751.

In the case of CGAATACC, the binding signal (normalized occupancy) came to 0.0756.

Regarding ATAAAGCC, the binding signal (normalized occupancy) turned out to be 0.0798.

As for CACCATCC, the binding signal (normalized occupancy) was 0.0824.

For TCCGCCGA, the binding signal (normalized occupancy) worked out at 0.0646.

As for AGAAACAG, the binding signal (normalized occupancy) is 0.0766.

In the case of ACCCAGCA, the binding signal (normalized occupancy) worked out at 0.0788.

For the sequence ATTCAGAA, the binding signal (normalized occupancy) is 0.0712.

As to CGATCGGA, the binding signal (normalized occupancy) is 0.07.

In the case of GCACGTAC, the binding signal (normalized occupancy) was determined as 0.0883.

ATCGCCCC: the binding signal (normalized occupancy) is 0.0783.

For ACAACCAC, the binding signal (normalized occupancy) was determined as 0.0821.

For GGCGCATA, the binding signal (normalized occupancy) amounted to 0.0798.

In the case of TCAAACCA, the binding signal (normalized occupancy) was found to be 0.078.

Regarding AAGGCACG, the binding signal (normalized occupancy) stood at 0.0868.

Turning to AACGTACG, the binding signal (normalized occupancy) is 0.0723.

For the sequence GAAAACCA, the binding signal (normalized occupancy) amounted to 0.0763.

Consider CGCCATGA, for which the binding signal (normalized occupancy) came to 0.0842.

Regarding ATCGTGCA, the binding signal (normalized occupancy) worked out at 0.0816.

Regarding ATAGACAT, the binding signal (normalized occupancy) worked out at 0.0863.

Turning to AGCATGAG, the binding signal (normalized occupancy) worked out at 0.102.

For CCGGGTCG, the binding signal (normalized occupancy) was found to be 0.0736.

On to GGTTTTAA, for which the binding signal (normalized occupancy) was determined as 0.0751.

As for CACCTGGA, the binding signal (normalized occupancy) worked out at 0.0905.

Take AACGATAA: the binding signal (normalized occupancy) was determined as 0.0756.

For CTTAGCGA, the binding signal (normalized occupancy) turned out to be 0.0727.

As to CCTTATTC, the binding signal (normalized occupancy) came out at 0.075.

With CAAACCAA, the binding signal (normalized occupancy) is 0.0752.

Take CTTTAAGA: the binding signal (normalized occupancy) is 0.0741.

For CGTTACAG, the binding signal (normalized occupancy) was 0.0745.

Turning to TAATCAGA, the binding signal (normalized occupancy) stood at 0.0774.

Turning to ACGGTGAG, the binding signal (normalized occupancy) is 0.0742.

On to GACCCACC, for which the binding signal (normalized occupancy) turned out to be 0.0814.

Turning to GAGGCCCA, the binding signal (normalized occupancy) was found to be 0.0722.

As to ACTCACGG, the binding signal (normalized occupancy) turned out to be 0.0724.

On to CGCCAGGC, for which the binding signal (normalized occupancy) stood at 0.067.

For AATTGAGT, the binding signal (normalized occupancy) was found to be 0.0752.

Regarding CCCTCATC, the binding signal (normalized occupancy) is 0.0827.

As for CTAGATAC, the binding signal (normalized occupancy) came out at 0.0745.

With AGGTCGTG, the binding signal (normalized occupancy) came out at 0.0692.

Turning to ACTTTACA, the binding signal (normalized occupancy) was 0.0785.

As to CACCGCAC, the binding signal (normalized occupancy) was 0.0783.

For AGACTTGC, the binding signal (normalized occupancy) was 0.0705.

Consider ATAGGATG, for which the binding signal (normalized occupancy) came to 0.0865.

AGAGTCTG: the binding signal (normalized occupancy) was found to be 0.0715.

Consider TGGGTACA, for which the binding signal (normalized occupancy) amounted to 0.0791.

Take AGCTAGTG: the binding signal (normalized occupancy) worked out at 0.0762.

Consider CCAGGCCA, for which the binding signal (normalized occupancy) worked out at 0.0744.

In the case of AATTGGTA, the binding signal (normalized occupancy) was 0.0766.

As for ACATCGAT, the binding signal (normalized occupancy) stood at 0.0839.

With AAGGCTGC, the binding signal (normalized occupancy) worked out at 0.0688.

Turning to CGCCGACG, the binding signal (normalized occupancy) stood at 0.0698.

Take CTTTGCTA: the binding signal (normalized occupancy) is 0.0746.

In the case of AATCCGCC, the binding signal (normalized occupancy) is 0.0726.

As to GGTCTGCA, the binding signal (normalized occupancy) came out at 0.0768.

Consider CGGTTGAC, for which the binding signal (normalized occupancy) is 0.0696.

Regarding AATTACGT, the binding signal (normalized occupancy) was determined as 0.0817.

For ACGCAAAC, the binding signal (normalized occupancy) came to 0.0692.

ATTGTTTA: the binding signal (normalized occupancy) was 0.0731.

Turning to AGCTACGA, the binding signal (normalized occupancy) was 0.0723.

For the sequence CCGCTGGC, the binding signal (normalized occupancy) was 0.0712.

For the sequence ATCCCCTC, the binding signal (normalized occupancy) stood at 0.0758.

Turning to AACCGGTG, the binding signal (normalized occupancy) worked out at 0.0755.

On to GAACCTTC, for which the binding signal (normalized occupancy) came to 0.0732.

As for GCCATAAC, the binding signal (normalized occupancy) came out at 0.0784.

Regarding GATGAAGC, the binding signal (normalized occupancy) is 0.0793.

As for CTCGCATA, the binding signal (normalized occupancy) is 0.0804.

In the case of AAGGAATG, the binding signal (normalized occupancy) was found to be 0.0735.

With CATGAAGG, the binding signal (normalized occupancy) turned out to be 0.0817.

For the sequence CTAGCCAG, the binding signal (normalized occupancy) turned out to be 0.0691.

With AATAAATC, the binding signal (normalized occupancy) was found to be 0.0749.

As to AAAAGTCG, the binding signal (normalized occupancy) came out at 0.0711.

On to GTGAAGAA, for which the binding signal (normalized occupancy) worked out at 0.0745.

With ATTAAGGC, the binding signal (normalized occupancy) was found to be 0.0701.

In the case of CTCACTTA, the binding signal (normalized occupancy) was 0.0764.

For AGGATATA, the binding signal (normalized occupancy) was 0.0816.

As for CATAAAGA, the binding signal (normalized occupancy) was 0.0756.

As for TTCGAGAA, the binding signal (normalized occupancy) was found to be 0.0808.

As to GACCCCAA, the binding signal (normalized occupancy) stood at 0.079.

On to GGTAAATA, for which the binding signal (normalized occupancy) is 0.0782.

As for ACGGCACA, the binding signal (normalized occupancy) was 0.0788.

Turning to ACTAATCC, the binding signal (normalized occupancy) came to 0.0789.

Turning to CTGCAGAA, the binding signal (normalized occupancy) was 0.0727.

Turning to CGACACAA, the binding signal (normalized occupancy) amounted to 0.0763.

For the sequence CACCCTCA, the binding signal (normalized occupancy) amounted to 0.0829.

As for GAGTCTGA, the binding signal (normalized occupancy) amounted to 0.0726.

Consider ACTGAGTG, for which the binding signal (normalized occupancy) came out at 0.0746.

Regarding GGACAAGA, the binding signal (normalized occupancy) was determined as 0.0714.

For the sequence TAGTATCA, the binding signal (normalized occupancy) stood at 0.0756.

ATCGACAC: the binding signal (normalized occupancy) was found to be 0.0841.

For GACCCATC, the binding signal (normalized occupancy) was found to be 0.0764.

In the case of CAAAGTAG, the binding signal (normalized occupancy) came to 0.0712.

For the sequence CACTCGGC, the binding signal (normalized occupancy) was 0.0727.

Take CATTTACA: the binding signal (normalized occupancy) is 0.0804.

For the sequence TCCCTAAA, the binding signal (normalized occupancy) was found to be 0.0748.

Consider ACTTGACC, for which the binding signal (normalized occupancy) came to 0.0672.

Consider GCGAATAA, for which the binding signal (normalized occupancy) came out at 0.0756.
